# Data reported in publication PMC4242493.
# Some of the results follow. The list includes weakly bound sequences.
# Target: MaxL homodimer (UniProt P61244)
# Test: universal protein-binding microarray (PBM)
# Settings: PBS-based mixture, 10 nM His-tagged protein dimer, 2% milk, 200 ng/uL BSA, 50 ng/uL salmon testes DNA, 0.02% TX-100; detection with Alexa 488 anti-His …; high values mean tight binding; most listed sequences are background and not binding sites; double strand, one strand shown
# Sequence of UniProt P61244 (P61244 whole entry): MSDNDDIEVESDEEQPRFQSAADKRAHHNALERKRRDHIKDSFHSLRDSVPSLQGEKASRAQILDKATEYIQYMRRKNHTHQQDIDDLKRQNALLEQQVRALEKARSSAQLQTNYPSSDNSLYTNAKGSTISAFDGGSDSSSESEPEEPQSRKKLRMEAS
row,Sequence,binding signal (normalized occupancy)
1,CCGATACC,0.0708
2,AGGCTGAG,0.0754
3,CGTACGGA,0.0708
4,ACCCGCCT,0.0747
5,AAAACCTA,0.0773
6,CCCGCCAA,0.0699
7,GGGGAGGA,0.0791
8,TCGCTGCA,0.0715
9,ATTGCTCA,0.0734
10,CTCAAGAG,0.0706
11,AGGATGGA,0.0772
12,AGACGGGG,0.0728
13,AGCGTCGG,0.0689
14,AGCAAATA,0.0781
15,CAGATATC,0.0778
16,AAAAATGC,0.0718
17,GCGAAGTA,0.0661
18,CCTAAGGA,0.0757
19,ATCGCGCG,0.0715
20,AGGGTATG,0.0841
21,TCTATTCA,0.0828
22,CCGTATGA,0.0792
23,AGTGGACG,0.0683
24,AAGGACGG,0.0706
25,CGAGCTGA,0.0699

row,Sequence,binding signal (normalized occupancy)
1,ATTTGTCG,0.0732
2,CGTCTATC,0.078
3,TCCCAGCA,0.0721
4,CGAGGGAC,0.0711
5,CCATGACG,0.0756
6,CAGGACTA,0.0709
7,CATGACAG,0.0835
8,ACCGCGGG,0.0694
9,AAGTAGTA,0.0794
10,ATTGCGCA,0.075
11,GTTAGGGA,0.076
12,CTAGGAGC,0.0687
13,AACGCGAG,0.0764
14,CACCGCCG,0.0703
15,ATAGGTAA,0.0773
16,CAACAAGA,0.0766
17,AAGGAACT,0.0712
18,AATGCACC,0.0777
19,CGAAATGC,0.0839
20,AGATTCTG,0.0733
21,ATTTTCCC,0.0783
22,ATCCATTG,0.0801
23,ACCTTTCT,0.0739
24,AGTCAACG,0.0774
25,GTACGCTA,0.0796

row,Sequence,binding signal (normalized occupancy)
1,CCAAAACG,0.0713
2,AGCGTGGG,0.113
3,CCTAAGAG,0.0723
4,ATCTTTGG,0.0739
5,ACATATCG,0.0783
6,CCATTCAC,0.078
7,CGGTTTGA,0.0701
8,GCAGTTTA,0.0714
9,AATCGGCG,0.0688
10,GAGCCCTC,0.0682
11,CACTGTGG,0.0743
12,ACCGCGAT,0.0768
13,AGGGCTAG,0.0711
14,CTATCTAA,0.0749
15,ACGAGAGA,0.0774
16,CAGGTACG,0.0729
17,ATCTAGCA,0.0824
18,CGTTGGAG,0.0748
19,CCGAAGCA,0.0764
20,CGAAAACG,0.0706
21,AACGTCAG,0.0741
22,CTAACACA,0.0861
23,AGGCGCAG,0.0694
24,CCGCAACG,0.0686
25,ATAGGTAC,0.0727

row,Sequence,binding signal (normalized occupancy)
1,CTGAGACA,0.0717
2,CACAAACG,0.071
3,ACAGCGTC,0.0731
4,AAGTAATG,0.0807
5,ATCCCGCC,0.0737
6,AACAGTGC,0.0741
7,AGTCCCAC,0.0735
8,AGGGGGGG,0.0816
9,CAACCCCC,0.0821
10,GAACTGAC,0.0729
11,ATATAACA,0.0809
12,CAATACTG,0.0785
13,AGCCAAAC,0.0733
14,AAGACTAA,0.0733
15,TATTCTGA,0.0768
16,ACTCTCGC,0.0742
17,GAGCCATC,0.074
18,CGTCGCAA,0.0721
19,ATCCAATG,0.0815
20,CCGCTTGA,0.0686
21,GGGCAAAA,0.0701
22,AAACCGCA,0.0705
23,CCGGTATC,0.0749
24,ACGTCCGG,0.069
25,AAATATTC,0.078

row,Sequence,binding signal (normalized occupancy)
1,ATCTCGCC,0.0718
2,AGGTCTTA,0.0761
3,TAATATAA,0.0786
4,AAATAGGG,0.0797
5,GGAAGTAC,0.0676
6,AAATACGT,0.0822
7,ACTATTCA,0.0755
8,AGCCAAAT,0.0727
9,CTCGGTGA,0.07
10,GCGGCGTA,0.0764
11,TATCATGA,0.0886
12,AAGTAATC,0.0762
13,GATATGCA,0.0792
14,GCTCTTAC,0.0729
15,CTGGCGCA,0.0709
16,CGGGGTGA,0.0807
17,AGCGTCAA,0.0731
18,CGCAGCTC,0.0702
19,CTAGCTGA,0.0713
20,TACCGGAA,0.071
21,TGGATCAA,0.0767
22,GAGACACA,0.0755
23,AGTCGTGC,0.0781
24,CCCTTGAC,0.0761
25,TTATGGAA,0.0819

row,Sequence,binding signal (normalized occupancy)
1,TCGTTAGA,0.071
2,ACGCAGAA,0.0781
3,ATGACGGA,0.0754
4,ACGTGCCA,0.115
5,GGATGGCC,0.0707
6,CGGTTTCA,0.0706
7,CCTGGTCA,0.0741
8,CACCTCGC,0.0819
9,CAACTGCG,0.0686
10,CCGCCCCC,0.08
11,ATCGGCAA,0.0694
12,CTCCTCGA,0.0663
13,CACAGCGA,0.0757
14,TAGTCATA,0.0824
15,TCGCACCA,0.0775
16,CCTACAGA,0.0729
17,GTCCCTGA,0.0756
18,AAAGAAAC,0.0773
19,CACGCATG,0.121
20,CCCATCCC,0.0829
21,CTAGGGGC,0.0728
22,AGCCTCTA,0.0774
23,CCACTCGA,0.0783
24,CCAGTAGG,0.0666
25,AATATCAA,0.0785

row,Sequence,binding signal (normalized occupancy)
1,ACTGCCGA,0.0686
2,AGCTGCTG,0.0719
3,CAAAATGA,0.0772
4,GACAGATA,0.081
5,ATGGGAGC,0.0768
6,CCAAGGTA,0.0695
7,ACATCTGC,0.0921
8,AGCTGGAC,0.0725
9,CTTTCTAC,0.0754
10,AGGTCGAC,0.0753
11,ATCCGGGC,0.0696
12,CGCGGTAA,0.0728
13,AACAGCTC,0.0698
14,AATGACCA,0.0772
15,ACATTCGC,0.0767
16,CCACATTA,0.093
17,AATTTGAG,0.075
18,GGACATCA,0.0726
19,CGTCCTGC,0.0753
20,GCCGATAA,0.0734
21,GCAGCCCC,0.0717
22,ACACCGCC,0.071
23,CCAAGGAA,0.0727
24,GCAGGATA,0.0731
25,GTATCGTA,0.0791

row,Sequence,binding signal (normalized occupancy)
1,CAGGTATG,0.0849
2,ACCCGATA,0.0766
3,GATTCTCC,0.0726
4,ATCCCAGG,0.077
5,GAGGGATA,0.0809
6,CACCGGTG,0.0754
7,CGTGTTAG,0.0934
8,ATTAGCCC,0.0735
9,GTCAAAAC,0.0673
10,ACTCTAAA,0.0713
11,ACCGGTTC,0.0691
12,AGGTGGTC,0.0855
13,AATTCGGG,0.0773
14,CCCCGACC,0.0749
15,ACAGCTTA,0.0769
16,GCCTAGCC,0.0731
17,GCTTGAAC,0.0762
18,CGCCACAA,0.076
19,CATGTGCC,0.149
20,GGACACAA,0.0793
21,AGTCCTCA,0.0699
22,TCCGCGCA,0.0729
23,ACCGAACC,0.0715
24,CCACCGAG,0.0749
25,GAATTATA,0.0789

row,Sequence,binding signal (normalized occupancy)
1,ATAAAGAA,0.0757
2,ACGGGAAC,0.074
3,AACCTAGG,0.0678
4,GAAGGTCC,0.0714
5,CAAGAGCG,0.0762
6,CTTCACAA,0.0737
7,AACTGTGA,0.0737
8,CCGTGCTA,0.0812
9,ACGCCAGT,0.0714
10,CCCTCGGA,0.0687
11,GGGGCAGA,0.0791
12,CAGTCGAC,0.0692
13,CTAGTCAG,0.07
14,AGACTTGG,0.0722
15,AGCACGTA,0.0853
16,GGGACTTA,0.0709
17,TATTGGCA,0.083
18,CTAGGGCC,0.07
19,CACACGCC,0.0955
